# Measurements reported in PubChem BioAssay AID686992 (Broad Institute, 2013).
# About 960 (0.37%) of roughly 260,000 compounds were called active. The shares of active, inactive and inconclusive entries below differ from those in the screen.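 How the source made its calls: active means mean E-selectin-positive cell signal at least 10% of the positive control, reached in at least 60% of replicates, without over 20% cell loss; inconclusive means no rule given, readout overlaps actives, possibly toxicity-flagged; inactive means the rest, including those meeting only one limit.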
# Biological target: E-selectin (Homo sapiens) (UniProt P16581)
# Assay: inducers of endothelial E-selectin expression – imaging, HUVEC, immunofluorescence imaging, single point, primary screen (AID 686992);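 further: signal is the percent of cells scored E-selectin positive by PE staining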
# Conditions: at 7.58 µM, hits give high values, normalized: neutral wells 0, TNF-alpha wells 100
# In short: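 Assay system: HUVEC primary endothelial cells. Input: 3,000 HUVEC seeded per well. Doses: one compound dose added by pin transfer. Read-out basis: % PE-positive cells. Benchmarks: TNF-alpha high, DMSO low. Detection: immunofluorescence imaging. Buffer or medium: EGM-2, gelatin.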
# UniProt P16581, sequence (P16581 whole entry, looked up): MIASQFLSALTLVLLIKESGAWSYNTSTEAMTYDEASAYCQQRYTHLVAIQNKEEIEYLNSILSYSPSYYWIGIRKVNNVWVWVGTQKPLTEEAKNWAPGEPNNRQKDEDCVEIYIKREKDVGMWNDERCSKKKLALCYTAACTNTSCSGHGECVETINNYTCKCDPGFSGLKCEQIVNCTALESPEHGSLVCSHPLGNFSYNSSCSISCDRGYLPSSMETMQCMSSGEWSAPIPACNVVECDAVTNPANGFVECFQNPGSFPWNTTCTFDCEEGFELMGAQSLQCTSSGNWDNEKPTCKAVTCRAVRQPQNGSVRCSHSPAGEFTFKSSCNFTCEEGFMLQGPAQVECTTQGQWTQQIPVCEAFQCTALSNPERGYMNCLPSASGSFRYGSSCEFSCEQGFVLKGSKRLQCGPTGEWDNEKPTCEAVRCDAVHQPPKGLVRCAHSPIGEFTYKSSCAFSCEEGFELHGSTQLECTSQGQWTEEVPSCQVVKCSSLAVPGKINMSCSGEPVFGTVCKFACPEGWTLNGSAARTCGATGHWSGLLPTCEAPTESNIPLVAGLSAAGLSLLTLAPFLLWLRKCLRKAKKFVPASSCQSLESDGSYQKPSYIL
row,SMILES,activation
1,Cc1ccc(CNc2nc(N)c([N+](=O)[O-])c(NCc3ccccc3)n2)cc1,inactive: 0.0875%
2,COc1ccc2c3c(n(C)c2c1)[C@@H](CO)NCC31CN(C(=O)c2cccc(F)c2)C1,inactive: -0.042%
3,C[C@@H]1CN([C@H](C)CO)C(=O)Cc2cc(NC(=O)Nc3ccc(F)cc3)ccc2O[C@@H]1CN(C)S(=O)(=O)c1ccc(Cl)cc1,active: 34.7%
4,CCN(CCn1cccn1)C(=O)CCc1nnc(CCCc2ccccc2)o1,inconclusive: 28.5%
5,OC(c1ccccc1)c1nc(-c2cncnc2)cs1 (centres undefined),inconclusive: 48.7%
6,CC(C)CCn1c(=O)c2ccccc2n2c(=S)[nH]nc12,inconclusive: 38%
7,Cc1[nH]c(=O)[nH]c(=O)c1/C=N/NC(=O)[C@H](C)N,inconclusive: 33.8%
8,C[C@H]1CN([C@@H](C)CO)C(=O)c2cc(NC(=O)CCN3CCOCC3)ccc2O[C@@H]1CN(C)Cc1ccncc1,active: 362%
9,CC(C)NC(=O)N(C)C[C@H]1OCCCC[C@H](C)Oc2ccc(NC(=O)NC3CCCCC3)cc2C(=O)N([C@@H](C)CO)C[C@H]1C,inactive: -0.075%
10,CCCC(=O)N1CC2(C1)CN(Cc1ccc(Cl)cc1)[C@H](CO)c1[nH]c3cc(OC)ccc3c12,inconclusive: 47.4%
11,CCN1C(=O)/C(=C/C=C2/Sc3ccc4ccccc4c3N2CCO)SC1=S,active: 33.9%
12,COc1ccc2c(c1)CCc1c-2n[nH]c1C(=O)NCCC(C)C,inconclusive: 37.5%
13,COC(=O)C1=C(C)N(c2ccc(C)cc2)/C(=C/c2ccc(O)cc2)C1=O,inconclusive: 60.7%
14,Cc1ccc(C)c2sc(NC(=O)CN3C(=O)CCC3=O)nc12,inactive: 0.521%
15,CO[C@@H]1CN(C)C(=O)c2cc(NC(C)=O)ccc2OC[C@@H](C)N(Cc2ccccc2F)C[C@H]1C,inactive: -0.131%
16,Cc1ccc(/C=N/N(C)S(=O)(=O)c2ccc(C)cc2)cc1,inconclusive: 63.9%
17,CCOc1cc(C(=O)OC(C)C(=O)Nc2ccc(NC(C)=O)cc2)ccc1OCC(=O)N1CCCCC1 (centres undefined),inconclusive: 43.4%
18,COc1ccc(CN(C)C[C@@H]2Oc3ccc(NS(=O)(=O)c4c(C)noc4C)cc3CC(=O)N([C@@H](C)CO)C[C@H]2C)cc1,inconclusive: -0.146%
19,CCN(CC)S(=O)(=O)c1ccc(C(=O)Oc2cc(C)[nH]c(=O)c2[N+](=O)[O-])cc1,inconclusive: 39.8%
20,O=C(c1ccccc1)N1C[C@H]2[C@@H](c3ccccc31)[C@@H](CO)N2C(=O)c1ccccn1,inactive: -0.0465%
21,CC(OC(=O)/C=C/c1ccccc1)C(=O)N1CCc2ccccc21 (centres undefined),inconclusive: 40.5%
22,O=C(CCCn1c(=O)c2ccccc2n(CC(=O)N2CCN(c3ccccc3)CC2)c1=O)NCc1ccco1,active: 42.9%
23,C[C@H]1CN([C@@H](C)CO)C(=O)c2cccc(NS(=O)(=O)c3cccs3)c2O[C@@H]1CN(C)Cc1ccc(C(=O)Nc2ccccc2N)cc1,active: 392%
24,Cc1cccn2c(=O)c(/C=N/O)c(Nc3ccccc3F)nc12,active: 59.3%
25,O=C(NCc1cccc(Cl)c1)C1CCCN(c2ncnc3c2nc2n3CCCCC2)C1 (centres undefined),inconclusive: 44.4%

row,SMILES,activation
1,CC1(C(=O)O)C=CCN1C(=O)c1ccccc1 (centres undefined),inconclusive: 51.3%
2,N#Cc1c(NC(=O)COC(=O)c2nccnc2N)sc2c1CCCC2,inconclusive: 55.2%
3,CC(C)N(CCC#N)C(=O)Nc1ccc2c(c1)CCO2,active: 74.3%
4,COc1ccc(C2CC(c3cccc(OC)c3)n3nc(N)nc3N2)cc1 (centres undefined),inconclusive: 30.1%
5,CCCC(=O)N1CCCC1(C)C(=O)Nc1cc(C)ccc1C (centres undefined),inconclusive: 51.9%
6,OC[C@@H]1[C@@H](c2ccccc2)C2(CN(Cc3nccs3)C2)N1CCC(F)(F)F,inactive: -0.077%
7,COc1ccc(Cn2cc(CN3CC(N4CCN(C5CCN(C)CC5)CC4)CS3(=O)=O)nn2)cc1 (centres undefined),inconclusive: 89.9%
8,C[C@@H]1CN([C@@H](C)CO)C(=O)c2cccc(NC(=O)NC3CCCCC3)c2O[C@@H]1CN(C)S(=O)(=O)c1ccc(F)cc1,inconclusive: 55.2%
9,Cc1noc(C)c1S(=O)(=O)Nc1ccc2c(c1)C(=O)N([C@H](C)CO)C[C@@H](C)[C@H](CN(C)Cc1ccncc1)O2,active: 57.4%
10,COc1ccc2oc(C(=O)NCCc3ccccc3)c(C)c2c1,inactive: 0.621%
11,COc1ccc(NC(=O)N(C)C[C@@H]2Oc3ccc(NC(=O)Cc4ccccc4)cc3CC(=O)N([C@H](C)CO)C[C@H]2C)cc1,active: 336%
12,COCCNC(=O)Cn1cc(/C=C(\C#N)C(=O)NC2CC2)c2ccccc21,inconclusive: 26.1%
13,COCC(=O)N1C[C@@H](C)[C@@H](OC)CN(C)C(=O)c2ccc(NC(=O)c3ccccc3)cc2OC[C@@H]1C,inactive: 0.081%
14,COc1ccc(NC(=O)N(C)C[C@@H]2Oc3ccc(NC(=O)c4ccncc4)cc3CC(=O)N([C@H](C)CO)C[C@@H]2C)cc1,active: 226%
15,O=C(C[n+]1ccccc1)Nc1ccccc1C(F)(F)F,inconclusive: 47.9%
16,O=C(Nc1ccc(Cl)cc1)N[C@H]1CC[C@H](CCNC(=O)c2cc(Cl)cc(Cl)c2)O[C@@H]1CO,inactive: 3.32%
17,CN(Cc1cccc2ncccc12)C(=O)CC1C(=O)NCCN1Cc1ccc(F)cc1 (centres undefined),active: 365%
18,Cc1cc(OCC(=O)Nc2ccncc2)ccc1[N+](=O)[O-],inconclusive: 26.7%
19,CCCOc1ccc(C(=O)OCCN(CC)CC)cc1N,inconclusive: 58.9%
20,O=C(NC1CCOCC1)C1CCC(=O)N(CCc2ccc(Cl)cc2)C1 (centres undefined),inconclusive: 31.5%
21,C[C@H](CO)N1C[C@H](C)[C@H](CN(C)S(=O)(=O)c2ccccc2)Oc2ncc(-c3cccc(F)c3)cc2C1=O,inactive: 0.104%
22,O=C(NCCc1cccnc1)c1cc(COc2ccc(F)cc2F)on1,inconclusive: 31.7%
23,Cc1cc(C(=O)O)ccc1-n1c(C)cc(C=C2C(=O)c3ccccc3C2=O)c1C,inconclusive: 30%
24,Cc1nn(CC(=O)c2ccccc2Cl)c(C)c1[N+](=O)[O-],inconclusive: 26.1%
